# Assay results from article PMC4336329 (PLoS ONE, 2015).
# The campaign covered roughly 310,000 compounds. About 2,200 (0.71%) showed an effect of 50% or more. The effect is printed as a negative number. The list shows a part of the results.
# Target: human ether-à-go-go-related gene (hERG) potassium channel (human, UniProt Q12809)
# Assay: primary screen, population patch clamp on CHO cells stably expressing hERG
# Chain of human ether-à-go-go-related gene (hERG) potassium channel (Q12809 whole entry, looked up): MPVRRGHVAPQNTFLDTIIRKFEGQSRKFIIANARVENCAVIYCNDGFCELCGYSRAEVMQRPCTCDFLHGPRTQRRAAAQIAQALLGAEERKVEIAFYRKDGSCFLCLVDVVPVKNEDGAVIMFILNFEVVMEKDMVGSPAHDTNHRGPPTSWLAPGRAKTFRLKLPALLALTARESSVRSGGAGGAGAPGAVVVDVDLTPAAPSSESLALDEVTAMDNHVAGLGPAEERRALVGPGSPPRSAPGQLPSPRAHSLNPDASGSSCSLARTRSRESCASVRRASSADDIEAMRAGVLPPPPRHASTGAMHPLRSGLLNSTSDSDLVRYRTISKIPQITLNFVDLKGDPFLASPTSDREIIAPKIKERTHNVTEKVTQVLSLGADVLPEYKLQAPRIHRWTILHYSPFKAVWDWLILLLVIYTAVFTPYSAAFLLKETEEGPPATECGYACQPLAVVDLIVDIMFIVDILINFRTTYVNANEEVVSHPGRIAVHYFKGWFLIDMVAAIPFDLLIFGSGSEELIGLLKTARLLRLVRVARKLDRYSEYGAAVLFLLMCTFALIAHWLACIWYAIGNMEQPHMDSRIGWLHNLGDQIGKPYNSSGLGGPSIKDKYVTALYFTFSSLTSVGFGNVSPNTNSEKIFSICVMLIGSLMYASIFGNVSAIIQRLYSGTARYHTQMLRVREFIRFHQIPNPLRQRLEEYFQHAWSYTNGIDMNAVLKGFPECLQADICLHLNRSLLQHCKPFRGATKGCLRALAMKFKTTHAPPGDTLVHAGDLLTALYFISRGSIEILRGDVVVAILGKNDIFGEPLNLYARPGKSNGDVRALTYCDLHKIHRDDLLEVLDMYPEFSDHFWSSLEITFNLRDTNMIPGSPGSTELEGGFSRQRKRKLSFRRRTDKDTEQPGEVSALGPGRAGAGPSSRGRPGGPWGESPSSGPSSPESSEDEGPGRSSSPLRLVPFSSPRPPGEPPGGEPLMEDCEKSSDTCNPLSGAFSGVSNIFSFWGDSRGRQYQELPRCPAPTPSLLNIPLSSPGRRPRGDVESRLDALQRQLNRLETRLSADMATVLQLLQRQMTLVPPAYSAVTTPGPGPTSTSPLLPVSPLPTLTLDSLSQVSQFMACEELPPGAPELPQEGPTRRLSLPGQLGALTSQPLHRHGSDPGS
row,SMILES,"hERG current change (%, negative = inhibition) at 1uM [%]"
1,CCOc1cc(C(=S)N2CCOCC2)ccc1OS(=O)(=O)c1ccccc1[N+](=O)[O-],5.67
2,COC(=O)C1=C(C)n2nnnc2NC1c1cc2ccccc2o1 (stereo not shown),-6.78
3,CC(C)(C)c1ccc(CSc2cnn(C(C)(C)C)c(=O)c2Cl)cc1,15.7
4,CC(=O)NCC(=O)OCN1C(=O)c2ccccc2C1=O,10.7
5,Cc1cccc(OCCNC(=S)NC(=O)c2cncc(Br)c2)c1,19.7
6,COc1ccccc1-c1coc2c(CN3C(C)CCCC3C)c(O)ccc2c1=O (stereo not shown),18
7,Cc1nc2ccccc2c(=O)n1NC(=O)c1ccccc1Br,10.3
8,Cc1ccccc1OCC(=O)N/N=C/c1cccc(Oc2ccc([N+](=O)[O-])cc2[N+](=O)[O-])c1,10.5
9,COCCN(CCOC)C(=O)C12CCC(C)(C(=O)C1)C2(C)C (stereo not shown),11.1
10,O=C(CN1CCN(S(=O)(=O)c2ccccc2)CC1)NC(=O)NCc1ccco1,6.34
11,CSc1ncccc1C(=O)OCC(=O)c1ccc2c(c1)NC(=O)CO2,14
12,CCOC(=O)C1=C(C)OC(N)=C(C#N)C1c1cc2c(cc1Br)OCO2 (stereo not shown),5.26
13,O=C(CSc1nc(=O)n2ccccc2n1)NC1CCCCC1,8.07
14,Cc1onc(C(=O)NCCc2ccccc2)c1[N+](=O)[O-],10.5
15,CC12CCC(=O)N1C(C(=O)OCC(=O)Nc1ccc(Cl)c(Cl)c1)CS2 (stereo not shown),-1.24
16,N/C(=N\OC(=O)c1ccccc1F)c1cccc([N+](=O)[O-])c1,12.9
17,CCOC(=O)CCCCCNC(=O)c1c(O)[nH]c(=O)[nH]c1=O,15.6
18,CN1CCCC(OC(=O)c2cccc(S(=O)(=O)N3CCCCCC3)c2)C1.Cl (stereo not shown),-4.45
19,CCOc1ccc(NC(=O)c2ccc(CNc3c(N4CCCC4)c(=O)c3=O)cc2)cc1,12.4
20,Cc1ccccc1S(=O)(=O)NCc1cccnc1,11.9
21,CCCCNC(=O)c1ccc2c(c1)N(CC)C(=O)c1ccccc1S2(=O)=O,10.5
22,O=C1C2C(C(=O)N1/N=C/c1ccc([N+](=O)[O-])o1)C1C=CC2C12CC2 (stereo not shown),7.99
23,CCc1ccccc1NC1=NCC(=O)N1C1CCCC1.Cl,15.1
24,Cc1ccccc1C(=O)Nc1ccc(O)c2c(=O)cc(-c3ccccc3Cl)oc12,3.07
25,COc1ccc(S(=O)(=O)N2CCN(Cc3ccc(OC)c(OC)c3)CC2)cc1,5.69
26,COc1ccc(C(=O)OCC(=O)Nc2cc(C)c(C)cc2[N+](=O)[O-])cc1,3.52
27,O=C(CCCCCN1C(=O)c2cccc3cccc(c23)C1=O)NCc1cccnc1,13.7
28,C/C(=N\NC(=S)NCc1ccccc1)c1ccc2ccccc2c1,10.9

row,SMILES,"hERG current change (%, negative = inhibition) at 1uM [%]"
1,CN(C1=NS(=O)(=O)c2ccccc21)c1ccc(OC(=O)c2ccncc2)cc1,6.26
2,C[C@@H]1CC2[C@@H]3CC[C@H]4CC(=O)CC[C@]4(C)C3=CC[C@]2(C)[C@@]1(O)C(=O)CO (stereo partly shown),4.23
3,CCOc1ccc(C2C(=O)N(C3CCCCC3)CC(=O)N2CC2CCCO2)cc1OC (stereo not shown),4.17
4,CC(C)c1ccc2[nH]c3nc(SCC(=O)NC4CC4)nnc3c2c1,16
5,COc1ccc(NS(=O)(=O)c2ccc(C)c(C(=O)O)c2)cc1,9.19
6,CC(C)Oc1ccc(CNC(=O)Cn2ccc3cc(S(=O)(=O)N4CCCC4)ccc32)cc1,19.3
7,CSc1ccc(CN(C)Cc2nc3ccccc3c(=O)[nH]2)cc1,-2
8,COc1ccccc1NS(=O)(=O)c1cc([N+](=O)[O-])ccc1N/N=C/c1c[nH]c2ccccc12,15.3
9,COC(=O)c1sc(-c2ccc(Cl)cc2)cc1NC(=O)/C=C/C(=O)O,14.3
10,CCOc1ccccc1OCCn1ncc2ccc(OC)c(OC)c2c1=O,10.6
11,CCOc1ccc(CC(=O)OCc2cc(=O)n3cc(Br)ccc3n2)cc1,-11
12,CS(=O)(=O)Nc1ccccc1N=C(c1ccccc1)c1ccccc1,14.3
13,Cc1c(-c2ccc(Cl)cc2)[n+](=O)c2c(n1[O-])CCCC2,7.11
14,O=C(Cc1ccccc1)Nc1scc(-c2ccccc2)c1C(=O)N1CCOCC1,-16.4
15,Cc1ccc(S(=O)(=O)CC(O)COc2ccc(F)cc2Cl)cc1 (stereo not shown),4.98
16,O=C(CN1CCN(S(=O)(=O)c2ccc(F)cc2)CC1)N1CCOCC1,-1.04
17,COc1ccccc1NC(=O)c1sc2ncn(CC(=O)Nc3ccccc3)c(=O)c2c1C,17.6
18,CCOC(=O)C(=O)Nc1sc(C(=O)N(CC)CC)c(C)c1C#N,10.2
19,Cc1nnc(SC(C)C(=O)N(C)C2CCCCC2)n1N (stereo not shown),10.5
20,O=C(Nc1nnc(-c2ccco2)s1)c1ccccc1,12.6
21,CN(C)C(=O)c1ccc(NC(=O)COc2ccc([N+](=O)[O-])cc2)cc1,-9.89
22,Cc1ccc2nc(-c3ccc(-c4ccccn4)s3)cn2c1,5.77
23,CC1CN(Cc2ccccc2)c2nc3c(c(=O)n(CC(N)=O)c(=O)n3C)n2C1 (stereo not shown),18.7
24,O=S(=O)(c1cccc(-c2nc3n(n2)Cc2ccccc2-3)c1)N1CCCCC1,9.98
25,Cc1ccc(S(=O)(=O)N2CCCCCC2)cc1C(=O)NCc1ccccn1,6.94
26,Cc1ccc(C2/C(=C(\O)c3ccc4c(c3)OCCO4)C(=O)C(=O)N2CC2CCCO2)cc1 (stereo not shown),13.1
27,C#CCO[C@@H]1C[C@H](n2cnc3c(=O)[nH]c(NC(=O)C(C)C)nc32)O[C@@H]1CO,15.4
